A collection of fitness landscapes (doi:10.1016/j.celrep.2020.107928)
Over roughly 81,000 sequences, “one-hybrid fitness for binding NBS DNA” has its median near -0.1; the highest 2% begin near 0.36. This is one part of the list.

B1: Caulobacter ParB omega fusion; a variant is named by its letters at X, in order, B8GW30 (parent)
chain: MESVVVGEPGMSEGRRGLGRGLSALLGEVDAAPAQAPGEQLGGSREAPIEILQRNPDQPRRTFREEDLEDLSNSIREKGVLQPILVRPSPDTAGEYQIVAGERAWRAAQRAGLKTVPIMVRELDDLAVLEIGIIENVQRADLNVLEEALSYKVLMEKFERTQENIAQTIGKSXSHVANXMRLLXLPDEVQSYLVSGELTAXHARAIAAAADPVALAKQIIEGGLSVRETEALARKAPNLSAGKSKGGRPPRVKDTDTQALESDLSSVLGLDVSIDHRGSTGTLTITYATLEQLDDLCNRLTRGI

Variants of: B1
Experiment: one-hybrid fitness for binding NBS DNA (the Noc-binding site; scaled: cognate 1, non-cognate 0); higher = stronger binding
Details: with NBS DNA site
Procedure, shortened: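 On M9-minus-histidine containing 0.1 mM IPTG and 5 mM 3-AT, E. coli USO cells with a HIS3 reporter, site 19 bp from the promoter, grew 48 hours at 37°C to select Caulobacter ParB libraries randomised at four specificity codons. Plasmids from before and after were Illumina-sequenced, with three replicate libraries pooled and variants under 10 reads left out. Fitness is the log change in variant-to-wild-type read ratio, rescaled against cognate and non-cognate.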

Variant | one-hybrid fitness for binding NBS DNA
YGIS | ≤ 0.2
DVAE | ≤ 0.2
ATMV | ≤ 0.2
RHKD | ≤ 0.2
VRVH | ≤ 0.2
ETQC | ≤ 0.2
IGSA | ≤ 0.2
TRQH | ≤ 0.2
LSFE | ≤ 0.2
SRDY | ≤ 0.2
YVWS | ≤ 0.2
YAHY | ≤ 0.2
PKHV | ≤ 0.2
KPSV | ≤ 0.2
QCCM | ≤ 0.2
QMHA | 0.305
WIPG | ≤ 0.2
TRVN | ≤ 0.2
GDGS | ≤ 0.2
DTNC | ≤ 0.2
RIAY | ≤ 0.2
TDHT | ≤ 0.2
CPMN | ≤ 0.2
YINH | ≤ 0.2

Variant | one-hybrid fitness for binding NBS DNA
KWPI | ≤ 0.2
SPEL | ≤ 0.2
VVMC | ≤ 0.2
EDNS | ≤ 0.2
IVLT | ≤ 0.2
YVHA | ≤ 0.2
SPRM | ≤ 0.2
VRTR | 0.279
GSVS | ≤ 0.2
THWR | ≤ 0.2
GKAK | ≤ 0.2
PHVK | ≤ 0.2
AYLE | ≤ 0.2
HQCR | ≤ 0.2
ILPP | ≤ 0.2
HYLC | ≤ 0.2
QPAP | ≤ 0.2
ASID | ≤ 0.2
MPLR | ≤ 0.2
VFSL | ≤ 0.2
KMWR | ≤ 0.2
HEIV | ≤ 0.2
QNVM | ≤ 0.2
KPHG | ≤ 0.2

Variant | one-hybrid fitness for binding NBS DNA
HTYV | ≤ 0.2
YAPL | ≤ 0.2
GWDR | ≤ 0.2
QLHS | 0.373
RVGA | ≤ 0.2
ELIS | ≤ 0.2
RYRN | ≤ 0.2
YDKN | ≤ 0.2
TVRC | ≤ 0.2
GHRK | ≤ 0.2
PQFG | ≤ 0.2
VALF | ≤ 0.2
SRPC | ≤ 0.2
KMFS | ≤ 0.2
LCFS | ≤ 0.2
TFLR | ≤ 0.2
NHNY | ≤ 0.2
NLDT | ≤ 0.2
RIHW | ≤ 0.2
RFRF | ≤ 0.2
WYPQ | ≤ 0.2
CWKT | ≤ 0.2
IPER | ≤ 0.2
IMRT | ≤ 0.2

Variant | one-hybrid fitness for binding NBS DNA
TAPL | ≤ 0.2
YMSF | ≤ 0.2
QCVM | ≤ 0.2
MTYR | ≤ 0.2
GQCR | ≤ 0.2
SEHS | ≤ 0.2
YYNN | ≤ 0.2
ILVG | ≤ 0.2
QVVT | 0.248
QVSK | ≤ 0.2
QRTF | 0.294
WIFS | ≤ 0.2
EVCS | ≤ 0.2
TLPY | ≤ 0.2
HYKK | ≤ 0.2
DIII | ≤ 0.2
RLDP | ≤ 0.2
QWPR | 0.202
SIMP | ≤ 0.2
PPFL | ≤ 0.2
QETG | ≤ 0.2
QTLM | ≤ 0.2
THYT | ≤ 0.2
KLPA | ≤ 0.2

Variant | one-hybrid fitness for binding NBS DNA
QKSE | ≤ 0.2
SCKE | ≤ 0.2
YTNG | ≤ 0.2
SNRT | ≤ 0.2
MPQI | ≤ 0.2
SCNS | ≤ 0.2
MMLC | ≤ 0.2
ITQT | ≤ 0.2
QLRP | ≤ 0.2
WIQC | ≤ 0.2
FKQR | ≤ 0.2
QVGR | 0.426
QAEK | ≤ 0.2
LTMR | ≤ 0.2
TIMG | ≤ 0.2
NRTR | ≤ 0.2
CGET | ≤ 0.2
SSYY | ≤ 0.2
LYYR | ≤ 0.2
FFQR | ≤ 0.2
HMGC | ≤ 0.2
CSAE | ≤ 0.2
DNSD | ≤ 0.2
HPAI | ≤ 0.2

Variant | one-hybrid fitness for binding NBS DNA
RAMK | ≤ 0.2
GPIF | ≤ 0.2
NKDH | ≤ 0.2
PLAN | ≤ 0.2
ERHN | ≤ 0.2
FDHS | ≤ 0.2
SHTN | ≤ 0.2
RPVP | ≤ 0.2
RKYI | ≤ 0.2
KYRQ | ≤ 0.2
MEKS | ≤ 0.2
RKAW | ≤ 0.2
GGTG | ≤ 0.2
ICRD | ≤ 0.2
KQLG | ≤ 0.2
FQLR | ≤ 0.2
HAQC | ≤ 0.2
VTRS | ≤ 0.2
PWAI | ≤ 0.2
MLMT | ≤ 0.2
HHKT | ≤ 0.2
RWII | ≤ 0.2
NDKS | ≤ 0.2
HGTT | ≤ 0.2

Variant | one-hybrid fitness for binding NBS DNA
RADN | ≤ 0.2
WILE | ≤ 0.2
ISLY | ≤ 0.2
CRKI | ≤ 0.2
TECF | ≤ 0.2
CSGP | ≤ 0.2
FNST | ≤ 0.2
TLRC | ≤ 0.2
RSHS | 0.47
MTQG | ≤ 0.2
LDFT | ≤ 0.2
GYNM | ≤ 0.2
NKDG | ≤ 0.2
PSTA | ≤ 0.2
EVSE | ≤ 0.2
PVES | ≤ 0.2
PNPR | ≤ 0.2
NFLR | ≤ 0.2
IIKS | ≤ 0.2
NTEG | ≤ 0.2
ITDR | ≤ 0.2
WTML | ≤ 0.2
GRKK | ≤ 0.2
SLWA | ≤ 0.2

Variant | one-hybrid fitness for binding NBS DNA
KRIN | ≤ 0.2
GDRK | ≤ 0.2
QIGC | ≤ 0.2
VAKG | ≤ 0.2
CPIG | ≤ 0.2
TNNV | ≤ 0.2
GHRS | ≤ 0.2
MKLG | ≤ 0.2
FTEG | ≤ 0.2
WRTC | ≤ 0.2
YGGF | ≤ 0.2
ENYR | ≤ 0.2
RYNS | 0.497
MSDG | ≤ 0.2
CAAS | ≤ 0.2
AALW | ≤ 0.2
PSCT | ≤ 0.2
LTSF | ≤ 0.2
TCDE | ≤ 0.2
DQRD | ≤ 0.2
RCSV | ≤ 0.2
FING | ≤ 0.2
NRNA | ≤ 0.2
VKNW | ≤ 0.2

Variant | one-hybrid fitness for binding NBS DNA
RHWQ | ≤ 0.2
PFFL | ≤ 0.2
PAGM | ≤ 0.2
DAHS | ≤ 0.2
NFCG | ≤ 0.2
KPSC | ≤ 0.2
RCIS | 0.281
RWKI | ≤ 0.2
CAGM | ≤ 0.2
MIRS | ≤ 0.2
PIKY | ≤ 0.2
MPFI | ≤ 0.2
YDST | ≤ 0.2
REVP | ≤ 0.2
TWAC | ≤ 0.2
QLHE | ≤ 0.2
DILM | ≤ 0.2
KTFK | ≤ 0.2
PIGH | ≤ 0.2
EAGC | ≤ 0.2
SARY | ≤ 0.2
ECHT | ≤ 0.2
TLVI | ≤ 0.2
SFLL | ≤ 0.2

Variant | one-hybrid fitness for binding NBS DNA
APHP | ≤ 0.2
GMVQ | ≤ 0.2
PRSS | ≤ 0.2
EYCS | ≤ 0.2
GDHR | ≤ 0.2
FDEV | ≤ 0.2
IQLA | ≤ 0.2
LLWR | ≤ 0.2
RQTS | 0.436
ISDV | ≤ 0.2
AQYW | ≤ 0.2
LIKM | ≤ 0.2
SKSW | ≤ 0.2
PEMS | ≤ 0.2
VNIT | ≤ 0.2
TLSH | ≤ 0.2
FVEL | ≤ 0.2
HKKI | ≤ 0.2
AMDE | ≤ 0.2
VRDV | ≤ 0.2
CTRC | ≤ 0.2
LDLT | ≤ 0.2
TENY | ≤ 0.2
SQPE | ≤ 0.2

Variant | one-hybrid fitness for binding NBS DNA
SNSI | ≤ 0.2
QNPF | ≤ 0.2
QESQ | ≤ 0.2
SAPT | ≤ 0.2
EDKI | ≤ 0.2
KNQV | ≤ 0.2
KKNM | ≤ 0.2
QHSC | ≤ 0.2
LHMH | ≤ 0.2
WAWC | ≤ 0.2
WPHC | ≤ 0.2
QKLP | ≤ 0.2
GRQV | ≤ 0.2
YCLS | ≤ 0.2
QESN | ≤ 0.2
QVDM | ≤ 0.2
GQTQ | ≤ 0.2
CNSN | ≤ 0.2
STNV | ≤ 0.2
KKNS | 0.258
HINI | ≤ 0.2
LAEC | ≤ 0.2
NDFT | ≤ 0.2
PPGL | ≤ 0.2

Variant | one-hybrid fitness for binding NBS DNA
CRWS | ≤ 0.2
LEYW | ≤ 0.2
QDYF | ≤ 0.2
NGNT | ≤ 0.2
CRKM | ≤ 0.2
THEM | ≤ 0.2
VDGR | ≤ 0.2
TAQV | ≤ 0.2
HSID | ≤ 0.2
KADS | ≤ 0.2
ARFR | ≤ 0.2
LKQV | ≤ 0.2
HADD | ≤ 0.2
AQQT | ≤ 0.2
LLGV | ≤ 0.2
QVFT | 0.214
LNWG | ≤ 0.2
NDPH | ≤ 0.2
NSVK | ≤ 0.2
LDVC | ≤ 0.2
RQKT | 0.63
GCAT | ≤ 0.2
VTHK | ≤ 0.2
QHTW | ≤ 0.2

Variant | one-hybrid fitness for binding NBS DNA
PREE | ≤ 0.2
LHVC | ≤ 0.2
RNNH | ≤ 0.2
CLFG | ≤ 0.2
DHDG | ≤ 0.2
LTNR | ≤ 0.2
AQIC | ≤ 0.2
DRVT | ≤ 0.2
TPLY | ≤ 0.2
CVRN | ≤ 0.2
HAKS | ≤ 0.2
FMRL | ≤ 0.2
EGTL | ≤ 0.2
MYAT | ≤ 0.2
STKY | ≤ 0.2
QFNG | ≤ 0.2
SVVP | ≤ 0.2
LYVS | ≤ 0.2
